The supplement of paper PMC4967469
IC50 is the fitted dose that halves viability relative to control wells, and lower means more sensitive; where the fit passes the top or lowest dose, that dose stands as a limit. AUC is the area under the same curve over the 256-fold range up to the top dose, as a fraction; it is 1 without any effect and falls as sensitivity rises. A top dose marked as inferred comes from the curve model; the source does not state it.

Compound: CCCCCCCCCCCC1=C(O)C(=O)C=C(O)C1=O [Embelin]
Test: Viability of human cancer cell lines after 72 h of drug (GDSC screen)
Settings: top dose 32 µM; top dose inferred
Procedure: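 Human cancer cell lines in 384-well plates, medium with 10% serum, drug for 72 h over a 256-fold dose range (nine 2-fold or five 4-fold steps up to the top dose). Adherent lines were fixed and stained with the nucleic acid dye Syto60, suspension lines read with resazurin; signal relative to control wells, capped at 0 and 100%. One two-parameter sigmoid per drug and line, fitted in a mixed model over all curves with the slope shared within a line.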

Cell Line	AUC	IC50
KCL-22 (chronic myeloid leukaemia, suspension)	0.714	7.14 µM
KE-37 (lymphoblastic leukaemia, suspension)	0.499	1.99 µM
KELLY (neuroblastoma, adherent)	0.733	8.56 µM
KG-1 (acute myeloid leukaemia, suspension)	0.907	> 32 µM
KGN (ovary, adherent)	0.573	3.3 µM
KINGS-1 (glioma, adherent)	0.922	> 32 µM
KLE (endometrium, adherent)	0.838	> 32 µM
KM12 (large intestine, adherent)	0.759	12.1 µM
KM-H2 (Hodgkin lymphoma, suspension)	0.879	24.4 µM
KMH-2 (thyroid, adherent)	0.749	9.4 µM
KMOE-2 (acute myeloid leukaemia, suspension)	0.945	> 32 µM
KMRC-1 (kidney, adherent)	0.832	22.2 µM
KMRC-20 (kidney, adherent)	0.896	> 32 µM
KMS-12-BM (myeloma, suspension)	0.907	30.7 µM
KNS-42 (glioma, adherent)	0.875	> 32 µM
KNS-81-FD (glioma, adherent)	0.805	23.6 µM
KON (head and neck, adherent)	0.639	4.81 µM
KOPN-8 (B-cell leukaemia, suspension)	0.717	7.38 µM
KOSC-2 (head and neck, adherent)	0.867	31.1 µM
KP-1N (pancreas, adherent)	0.75	10.9 µM
KP-2 (pancreas, adherent)	0.7	7.69 µM
KP-3 (pancreas, adherent)	0.865	> 32 µM
KP-4 (pancreas, adherent)	0.787	13.4 µM
KP-N-YN (neuroblastoma, adherent)	0.904	> 32 µM
KP-N-YS (neuroblastoma, adherent)	0.871	> 32 µM
KS-1 (glioma, adherent)	0.806	21.2 µM
KU812 (chronic myeloid leukaemia, suspension)	0.944	> 32 µM

Cell Line	AUC	IC50
KU-19-19 (bladder, adherent)	0.865	28.2 µM
KURAMOCHI (ovary, adherent)	0.68	6.92 µM
KY821 (leukaemia, suspension)	0.958	> 32 µM
KYM-1 (rhabdomyosarcoma, adherent)	0.899	30.4 µM
KYSE-50 (oesophagus, adherent)	0.72	7.87 µM
KYSE-70 (oesophagus, adherent)	0.801	17.4 µM
KYSE-140 (oesophagus, adherent)	0.671	6.42 µM
KYSE-150 (oesophagus, adherent)	0.792	13.8 µM
KYSE-180 (oesophagus, adherent)	0.72	8.1 µM
KYSE-220 (oesophagus, adherent)	0.885	> 32 µM
KYSE-270 (oesophagus, adherent)	0.673	5.58 µM
KYSE-410 (oesophagus, adherent)	0.685	6.85 µM
KYSE-450 (oesophagus, adherent)	0.722	8.17 µM
KYSE-510 (oesophagus, adherent)	0.7	6.51 µM
KYSE-520 (oesophagus, adherent)	0.773	17 µM
L-363 (myeloma, suspension)	0.844	18.4 µM
L-428 (Hodgkin lymphoma, suspension)	0.654	5.05 µM
L-540 (Hodgkin lymphoma, suspension)	0.672	5.69 µM
L-1236 (Hodgkin lymphoma, suspension)	0.931	> 32 µM
LAMA-84 (chronic myeloid leukaemia, suspension)	0.827	20 µM
LAN-6 (neuroblastoma, adherent)	0.936	> 32 µM
LB373-MEL-D (melanoma, adherent)	0.824	18.5 µM
LB647-SCLC (small cell lung carcinoma, semi-adherent)	0.813	19.9 µM
LB771-HNC (head and neck, adherent)	0.84	30.7 µM
LB831-BLC (bladder, adherent)	0.733	9.35 µM
LB996-RCC (kidney, adherent)	0.798	18.1 µM
LB1047-RCC (kidney, adherent)	0.691	7.4 µM

Cell Line	AUC	IC50
LB2241-RCC (kidney, adherent)	0.79	16.1 µM
LB2518-MEL (melanoma, adherent)	0.771	12.9 µM
LC4-1 (lymphoblastic leukaemia, suspension)	0.917	> 32 µM
LC-1-sq (lung squamous cell carcinoma, adherent)	0.84	27.7 µM
LC-2-ad (lung adenocarcinoma, adherent)	0.702	7.54 µM
LCLC-97TM1 (large cell lung carcinoma, adherent)	0.646	5.28 µM
LCLC-103H (large cell lung carcinoma, adherent)	0.72	7.85 µM
LK-2 (lung squamous cell carcinoma, adherent)	0.729	8.59 µM
LN-18 (glioma, adherent)	0.743	8.34 µM
LN-229 (glioma, adherent)	0.763	11.5 µM
LN-405 (glioma, adherent)	0.827	26.8 µM
LNCaP-Clone-FGC (prostate, adherent)	0.824	22.7 µM
LNZTA3WT4 (glioma, adherent)	0.759	11 µM
LOU-NH91 (lung squamous cell carcinoma, adherent)	0.814	19.4 µM
LOUCY (T-cell lymphoblastic leukaemia, suspension)	0.606	3.7 µM
LOXIMVI (melanoma, semi-adherent)	0.843	19.1 µM
LP-1 (myeloma, suspension)	0.93	> 32 µM
LS-123 (large intestine, adherent)	0.74	12.5 µM
LS-180 (large intestine, adherent)	0.732	10.2 µM
LS-411N (large intestine, adherent)	0.703	8.52 µM
LS-513 (large intestine, adherent)	0.906	> 32 µM
LS-1034 (large intestine, adherent)	0.894	> 32 µM
LU-65 (large cell lung carcinoma, suspension)	0.907	> 32 µM
LU-99A (large cell lung carcinoma, adherent)	0.808	16.4 µM
LU-134-A (small cell lung carcinoma, suspension)	0.916	> 32 µM
